“And” between values parts separate entries of the source, which are not always exact repeats. Identical values can stand only once. The campaign covered roughly 340,000 compounds. About 12,000 (3.5%) were called active. The inconclusive results got no clear call from the source; some entries with a clear call stand among them for comparison. Calls follow the shape of the dose curve; as a rule, active = well fitted inhibition curve with a large enough effect; inconclusive = small, poorly fitted or top-dose-only effect, or another doubt; inactive = no such curve, though single readings can be large or run the other way. A potency beside an inconclusive call is a rough fit, not a confirmed value.
Test: qHTS Assay for Inhibitors of Hepatitis C Virus (HCV)
Details: Huh7.5.1 HCVcc-Cre (HCVcc is cell-culture hepatitis C virus) infection, luciferase reporter, 44 h; activity change, negative = inhibition: at 41.8 µM (top of the series) unless noted
Procedure, shortened: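 Reporter virus HCVcc-Cre (~0.5 moi) infects cells exposed to compound; seeding density 1,000 cells/well with 4 h settling beforehand. Luminescence, 15 sec read, taken 44 h post-infection following a 15 min RT substrate incubation.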
% is scaled to controls: 0 for no effect and ±100 for the full control effect; potency is read from the fitted curve at half-maximal effect; tags tell the direction and shape of the fitted curve.

Row | SMILES | activity change, negative = inhibition | Potency
1 | COc1cccc(NC(=S)Nc2ccc(Br)cc2Cl)c1 | inactive: -16% | –
2 | Cc1nn(Cc2ccc(Cl)c(Cl)c2)c(C)c1NC(=O)c1cn(-c2ccccc2)nc1-c1ccccc1 | – | inconclusive: 14.1 µM [inhibitor, single point]
3 | CCc1cc2cc(C(=O)Nc3ccccc3F)sc2s1 | – | inconclusive: 6.31 µM [inhibitor, partial curve]
4 | CC(C)COCc1ccc(O)c2ncccc12 | – | active: 2.82 µM
5 | CCCn1c(NC(=O)c2ccc(C)cc2)nc2ccccc21 | – | inconclusive: 0.562 µM [inhibitor, full curve, poor fit]
6 | COc1cccc(NC(=O)CN(C)C(=O)c2ccc(-c3ccc(Cl)cc3)o2)c1 | inactive: -5.06% | –
7 | CCN(CC)S(=O)(=O)c1cc(NC(=O)C(C)N2CCN(Cc3ccc4c(c3)OCO4)CC2)ccc1C (stereo not given) | – | inconclusive: 28.2 µM [inhibitor, single point]
8 | CCC(C)Nc1nc(CN2CCOCC2)nc2sc3c(c12)CCC3 (stereo not given) | – | inconclusive: 14.1 µM [inhibitor, partial curve]
9 | CCN1C(=O)[C@H]2[C@@H](c3ccc(-c4ccc(C(C)=O)cc4)cc3)N[C@@](C)(C(=O)OC)[C@H]2C1=O | inactive: 4.08% | –
10 | COc1ccc(CCNC(=O)c2ccc(N(C)S(=O)(=O)c3ccc(C)cc3)cc2)cc1 | – | active: 10 µM
11 | O=C(OCc1c(F)cccc1Cl)c1cnc(Cl)c(Cl)c1 | – | active: 10 µM
12 | CN(Cc1ccccc1)C(=O)c1ccc(NC(=O)Cc2ccc(NC(=O)C3CCN(C(=O)CCc4ccccc4)CC3)cc2)cc1 | – | inconclusive: 12.6 µM [inhibitor, single point]
13 | C/C=C(/C)C(=O)Nc1cccc(C2=NOC3(C2)C[C@@H](C(N)=O)N(C(=O)CC(c2ccccc2)c2ccccc2)C3)c1 (stereo not given in full) | – | inconclusive: 20 µM [inhibitor, single point]
14 | C=CCN=C(C)C1=C(O)CCC1=O | inactive: 5.47% | –
15 | COc1ccc(-c2nc(CN3CCC(c4ccccc4)CC3)c(C)o2)cc1OC | – | inconclusive: 10 µM [inhibitor, single point]
16 | CCCC(=O)Nc1ccc2nc(SCC(=O)Nc3ccc(N4CCOCC4)c(Cl)c3)sc2c1 | – | inconclusive: 22.4 µM [inhibitor, single point]
17 | CCNC(=O)c1ccc2c(c1)S(=O)(=O)c1ccccc1C2=O | inactive: -12.8% | –
18 | CNC(=O)c1c(NC(=O)c2ccc(S(=O)(=O)N(C)c3ccccc3)cc2)sc2c1CCN(C(C)C)C2 | – | active: 11.2 µM
19 | COc1ccc(C(O)(CCc2ccccc2)CCN2CCCCC2)cc1 (stereo not given) | – | active: 31.6 µM
20 | CCc1ccc(N(C(=O)c2csnn2)C(C(=O)NC2CCCC2)c2cccnc2)cc1 (stereo not given) | inactive: 19.5% | –
21 | O=C(CSc1cn(CCNC(=O)c2cccs2)c2ccccc12)NC1CCCCC1 | – | inconclusive: 22.4 µM [inhibitor, single point]
22 | CC1CC(C)(C)n2c(O)c(N=NC(N)=S)c3cccc1c32 (stereo not given) | – | inconclusive: 28.2 µM [inhibitor, single point]
23 | N#Cc1c(NC(=S)NC(=O)Cc2cccs2)sc2c1CCCCC2 | inactive: -16.5% | –
24 | CNCCC(Oc1ccccc1OC)c1ccccc1 (stereo not given) | – | inconclusive: 0.316 µM [inhibitor, full curve, poor fit]

Row | SMILES | activity change, negative = inhibition | Potency
25 | CCn1c(=S)sc2c(=O)n(-c3ccccc3)c(SC)nc21 | – | inconclusive: 31.6 µM [inhibitor, single point]
26 | COc1cc(S(=O)(=O)Nc2ccc(C(=O)NCC(=O)O)cc2)ccc1NC(C)=O | – | inconclusive: 2 µM [inhibitor, partial curve]
27 | CCn1nc(C)c(NC(=O)CCSc2nc(-c3ccco3)cc(C(F)(F)F)n2)c1C | – | inconclusive: 7.08 µM [inhibitor, single point]
28 | COc1ccc(CCNC(=O)COC(=O)c2cnc(Cl)c(Cl)c2)cc1 | – | inconclusive: 31.6 µM [inhibitor, single point]
29 | CN(C)c1ccc(/C=N/c2cc(-c3ccccc3)nn2-c2ccccc2)cc1 | – | inconclusive: 0.562 µM [inhibitor, full curve, poor fit]
30 | C=CCS/C(=N\n1cnc2ccccc2c1=O)N(CC)CC | – | inconclusive: 12.6 µM [inhibitor, single point]
31 | C=CCNc1ncnc2c1[nH]c1ccc(C)cc12 | – | inconclusive: 22.4 µM [inhibitor, single point]
32 | COC(=O)c1ccc(CNC(=O)c2ccc(S(=O)(=O)N(C)c3ccccc3OC)cc2)cc1 | – | active: 8.91 µM
33 | CCOC(=O)c1ccc(NC(=O)c2cc3c(s2)CCC3)cc1 | – | active: 7.94 µM
34 | CCOc1ccc(C(=O)Nc2cccc(-c3ccc4nncn4n3)c2)cc1 | – | inconclusive: 14.1 µM [inhibitor, partial curve]
35 | CN(CCNC(=O)c1ccc(N2CCCC2=O)cc1)CCc1ccccc1 | inactive: 15.8% | –
36 | C[N+](C)(C)CC(=O)Nc1ccc(Cl)cc1C(=O)c1ccccc1 | inactive: 8.17% | –
37 | COc1cc2oc3ccc(C#Cc4ccccn4)cc3c(=O)c2cc1OC | – | inconclusive: 4.47 µM [inhibitor, single point]
38 | O=C(NC(=O)N1CCN(c2ccccc2)CC1)c1ccc(Cl)cc1 | – | inconclusive: 22.4 µM [inhibitor, single point]
39 | COc1ccc(OC)c(NC(=O)c2ccc3c(c2)OCO3)c1 | – | inconclusive: 10 µM [inhibitor, partial curve]
40 | CC1=CC(=C2N=C(c3ccccc3)OC2=O)C=C(C)O1 | – | inconclusive: 2.51 µM [inhibitor, full curve]
41 | Cc1sc2ncnc(N3CCC(C(=O)NNC(=O)c4ccc(Cl)cc4)CC3)c2c1C | – | inconclusive: 14.1 µM [inhibitor, partial curve]
42 | O=C(c1cc(COc2c(F)cccc2F)on1)N1CCC(c2ccncc2)CC1 | – | active: 5.01 µM
43 | COc1cccc2cc(-c3nc4ccccc4[nH]3)c(=O)oc12 | inactive: 19% | –
44 | c1ccc2c(N3CCCC3)nc(-c3ccncc3)nc2c1 | – | inconclusive: 3.98 µM [inhibitor, partial curve, poor fit]
45 | Cn1ncc([N+](=O)[O-])c1C(=O)NC1CCCCC1 | inactive: -4.32% | –
46 | CCN(CC)CCOCCOc1cc(C)c(Cl)c(C)c1 | – | active: 11.2 µM
47 | COc1ccc(CNCC(O)(c2ccc(Cl)cc2)c2ccc(Cl)cc2)cc1 | – | inconclusive: 22.4 µM [inhibitor, single point]
48 | CNC(=O)CSc1nc2c(c(=O)n(C)c(=O)n2C)n1Cc1ccc(C)cc1 | – | active: 0.631 µM

Row | SMILES | activity change, negative = inhibition | Potency
49 | COc1ccc(NC(=O)N2C3CCCC2CC(NC(=O)c2ccccc2)C3)cc1 (stereo not given) | inactive: 9.29% | –
50 | COc1ccc(C2CC(c3ccccc3OC(=O)/C=C/c3ccccc3)=NN2C(C)=O)cc1 (stereo not given) | – | inconclusive: 14.1 µM [inhibitor, single point]
51 | COC(=O)CNC(c1ccccc1)c1cc(Br)ccc1NS(=O)(=O)c1ccc(C)cc1 (stereo not given) | – | inconclusive: 11.2 µM [inhibitor, single point]
52 | CC1CNCCN1S(=O)(=O)c1cccc2cnccc12 (stereo not given) | – | inconclusive: 14.1 µM [inhibitor, single point] and inconclusive: 31.6 µM [inhibitor, single point]
53 | O=C(c1ccccc1)[C@@H]1[C@@H](C(=O)c2ccc(F)cc2)[C@@]2(C(=O)Nc3ccccc32)[C@H]2c3ccccc3C=CN12 | inactive: 0.948% | –
54 | O=C(C[n+]1ccccc1)Nc1c(Cl)cc(Cl)cc1Cl | inactive: 6.08% | –
55 | CN(C)CCN(C(=O)c1ccc2c(c1)OCCO2)c1nc2c(Cl)cccc2s1 | – | inconclusive: 8.91 µM [inhibitor, partial curve, poor fit]
56 | O=[N+]([O-])c1cc2c(c(CSc3nnnn3-c3ccc(O)cc3)c1)OCOC2 | – | inconclusive: 7.08 µM [inhibitor, partial curve]
57 | COc1ccc(OC)c(-c2csc(NC(=O)CSc3nnnn3C)n2)c1 | inactive: 3.87% | –
58 | CN(C)C(CNC(=S)Nc1ccccc1Cl)c1cccnc1 (stereo not given) | inactive: -10.3% | –
59 | O=C(N/N=C/c1cc(Br)ccc1O)c1ccncc1 | – | inconclusive: 22.4 µM [inhibitor, single point]
60 | Cc1nn(C(C)C(=O)NC2CCCCCC2)c(=O)c2nn(-c3ccccc3)c(C)c12 (stereo not given) | – | inconclusive: 28.2 µM [inhibitor, partial curve]
61 | O=C(COc1ccccc1)NC(NC(=S)Nc1ccccc1C(=O)O)C(Cl)(Cl)Cl (stereo not given) | inactive: 22.7% | –
62 | COc1cc(C(=O)NCC(=O)N/N=C/c2ccc(-c3cccc([N+](=O)[O-])c3)o2)cc(OC)c1OC | – | inconclusive: 11.2 µM [inhibitor, single point]
63 | CN(C)CCCNc1ncnc2c1c(-c1ccccc1)cn2-c1ccccc1 | – | inconclusive: 14.1 µM [inhibitor, single point]
64 | CC(C)C[C@H](NC(=O)OC(C)(C)C)C(=O)N/N=C/C1=Cc2ccccc2OC1C (stereo not given in full) | – | inconclusive: 22.4 µM [inhibitor, single point]
65 | O=c1c2ccccc2nnn1CSc1ccccc1F | inactive: 2.93% | –
66 | Cc1ccccc1C(=O)N1CCN(c2ccc(N3CCOCC3)nn2)CC1 | – | inconclusive: 31.6 µM [inhibitor, single point]
67 | CC(=O)c1cccc(NC2c3ccccc3C(=O)N2Cc2ccco2)c1 (stereo not given) | – | inconclusive: 31.6 µM [inhibitor, single point]
68 | O=c1cc(NS(=O)(=O)c2ccccc2)nc(SCc2ccc(Cl)cc2)[nH]1 | – | inconclusive: 8.91 µM [inhibitor, partial curve]
69 | O=C(CN1C(=O)CC(c2ccco2)Sc2ccccc21)Nc1ccc2c(c1)OCCO2 (stereo not given) | – | active: 11.2 µM
70 | COCc1c(C(=O)Nc2ccc(C)c(S(=O)(=O)N3CCOCC3)c2)oc2ccccc12 | – | inconclusive: 11.2 µM [inhibitor, partial curve]

From PubChem BioAssay AID651820 (National Center for Advancing Translational Sciences (NCATS), 2012)
